Assay results taken from the RNAGym collection of RNA variant scans (doi:10.1093/nar/gkz1192).
The source gives no read counts; variants with many changes may rest on few reads.

B1: CPEB3 Ribozyme (parent)
chain: UAACAGGGGGCCACAGCAGAAGCGUUCACGUCGCAGCCCCUGUCAGAUUCUGGUGAAUCUGCGAAUUCUGCUGUAUAUCUC

Variants of: B1
Experiment: self-cleavage, relative activity (ratio to wild type); higher = more cleavage; in vitro, sequencing
How it was run: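 Relative activity was defined as the cleaved/total read fraction for a variant divided by the same fraction for the unmutated ribozyme. CPEB3 self-cleaving ribozyme libraries were made by rounds of error-prone PCR, barcoded, and transcribed in vitro with T7 RNA polymerase for 5 hours at 37°C, and cleavage ran through transcription plus a 15 min DNase I step before EDTA. Illumina sequencing of template-switched reverse transcripts gave the reads, and DNA sequencing mapped the barcodes. Averages come from three batches, using variants with at least 5 reads.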
UAACAGGGGGCCACAGCAGGAGCGUUCACGUCCCAGCCCCCGUCAGACUCUGGUGAAUCCGCGAAUUCUGCCGUAUAUCUC [A20G G33C U41C U48C U60C U72C] showed a self-cleavage of 0.06.
Work on UAACAGGGGGCCACAGCAGGAGCGUUCACGUCGCAACCCCUGUCUGAUUCUGGUGAGUCCGCGAAUUCUGCUGUAUAUCUC [A20G G36A A45U A57G U60C] yielded a self-cleavage of 0.1.
Variant UAACAGGGGGCCACAGCAGGAGCGUUCACGUCGCAACCCCUGUCAGGUUCUGGUGAAUCUGCGAAUUCUGCCGUAUACCUC [A20G G36A A47G U72C U78C] has a self-cleavage of 0.14.
UAACAGGGGGCCACAGCAGGAGCGUUCACGUCGCAAGCCCUGUCAGAUUUUGGUGAAUCCGCGAAUUCUGCUGUAUGUCUC [A20G G36A C37G C50U U60C A77G] gave a self-cleavage of 0.03.
For UAACAGGGGGCCACAGCAGGAGCGUUCACGUCGCAACCCCCGUCAGAUUCUGGUGAAUCUGCGAGUUCUGUUGUAUAUCUC [A20G G36A U41C A65G C71U], the self-cleavage was 0.1.
Work on UAACAGGGGGCCACAGCAGGAGCGUUCACGUCGCAACCCCUGUCAGAUUCUGGUGAAUCUGCGAAUCCUGCUGUAUAUCUC [A20G G36A U67C] yielded a self-cleavage of 0.13.
Variant UAACAGGGGGCCACAGCAGGAGCGUUCACGUCGCAACCCCUGUCAGAUUCUGGUGAAUCUGCGAAUUCUGCUGAAUUUCUC [A20G G36A U74A A77U] has a self-cleavage of 0.46.
For UAACAGGGGGCCACAGCAGGAGCGUUCACGUCGCAUCCCCCGUCAGAUUCUGGUGAAUCUGCGAAUUCCGCUGUAUAUCUC [A20G G36U U41C U69C], the self-cleavage was 0.08.
UAACAGGGGGCCACAGCAGGAGCGUUCACGUCGCAUCCCCUGUCAGAUCCUGGUGAUUCUGCGAAUUCUGCUGUAUAUCUC [A20G G36U U49C A57U] showed a self-cleavage of 0.41.
UAACAGGGGGCCACAGCAGGAGCGUUCACGUCGCAGCCCCUAUCAGAUUCUGGUGAAUCUGCUAAUUCUGCUGUAUAUCUC [A20G G42A G63U] showed a self-cleavage of 0.12.
For UAACAGGGGGCCACAGCAGGAGCGUUCACGUCGCAGCCCCUCUCAGAUUCUGGUGUAUCUGCGAAUUCUGCUGUAUAUCUC [A20G G42C A56U], the self-cleavage was 0.08.
With UAACAGGGGGCCACAGCAGGAGCGUUCACGUCGCAGCCCCUCUCAGAUUCUGGUGAAUCUGCGAAUUCUGCUGGAUAUCUC [A20G G42C U74G] the self-cleavage was 0.32.
Work on UAACAGGGGGCCACAGCAGGAGCGUUCACGUCGCAGCCCCUUUCAGGUUCUGGUGAAUCUGCGAAUUCUGCUGCAUAUCUC [A20G G42U A47G U74C] yielded a self-cleavage of 0.28.
For UAACAGGGGGCCACAGCAGGAGCGUUCACGUCGCAGCCCCUGUCAAUUUCAGGUGAAUCUGCGAACUCUGCUGUAUAACUC [A20G G46A A47U U51A U66C U78A], the self-cleavage was 0.07.
Variant UAACAGGGGGCCACAGCAGGAGCGUUCACGUCGCAGCCCCUGUCAAAUUCUGGUGAAUCUGCGAAUUAUGCUGUAUAUCUC [A20G G46A C68A] has a self-cleavage of 0.
UAACAGGGGGCCACAGCAGGAGCGUUCACGUCGCAGCCCCUGUCAAAUUCUGGUGAAUCUGCGAAUUCUGCUGUAUAGCUC [A20G G46A U78G] showed a self-cleavage of 0.23.
Work on UAACAGGGGGCCACAGCAGGAGCGUUCACGUCGCAGCCCCUGUCAUAAUCUGGUGAAUCCGCGAAUUCUGCUGUAUAUCUC [A20G G46U U48A U60C] yielded a self-cleavage of 0.1.
UAACAGGGGGCCACAGCAGGAGCGUUCACGUCGCAGCCCCUGUCAUAUUCUGGCGAAUCUGCGAAUUCUGCCGUAUAUCAC [A20G G46U U54C U72C U80A] showed a self-cleavage of 0.1.
UAACAGGGGGCCACAGCAGGAGCGUUCACGUCGCAGCCCCUGUCAGAUUCUAGUGAAUCUGCGAAUUCCGCUGUAUAUCUC [A20G G52A U69C] gave a self-cleavage of 0.65.
UAACAGGGGGCCACAGCAGGAGCGUUCACGUCGCAGCCCCUGUCAGAUUCUAGUGAAUCUGCGAAUUCUGCUGUAUAUCCC [A20G G52A U80C] gave a self-cleavage of 1.01.
Variant UAACAGGGGGCCACAGCAGGAGCGUUCACGUCGCAGCCCCUGUCAGAUUCUUGUGAAUCUGCGGAUUCUGCUGUAUAUCUC [A20G G52U A64G] has a self-cleavage of 0.63.
UAACAGGGGGCCACAGCAGGAGCGUUCACGUCGCAGCCCCUGUCAGAUUCUUGUGAAUCUGCGAAUCCUGCUGUAUACCUC [A20G G52U U67C U78C] showed a self-cleavage of 0.91.
With UAACAGGGGGCCACAGCAGGAGCGUUCACGUCGCAGCCCCUGUCAGAUUCUGAUGAAUUUGCGAAUUCUGCUGUAUAUCUA [A20G G53A C59U C81A] the self-cleavage was 0.86.
Variant UAACAGGGGGCCACAGCAGGAGCGUUCACGUCGCAGCCCCUGUCAGAUUCUGCUGAAUCUGCGAAUUCUGCUGAAUAUCUC [A20G G53C U74A] has a self-cleavage of 0.47.
With UAACAGGGGGCCACAGCAGGAGCGUUCACGUCGCAGCCCCUGUCAGAUUCUGUUGAAUCUGCGAAUUCUGCCGUAUAUCUC [A20G G53U U72C] the self-cleavage was 0.71.
UAACAGGGGGCCACAGCAGGAGCGUUCACGUCGCAGCCCCUGUCAGAUUCUGGUAAAUCCGCGAAUUCUGCUGUAUUUCUC [A20G G55A U60C A77U] showed a self-cleavage of 0.1.
UAACAGGGGGCCACAGCAGGAGCGUUCACGUCGCAGCCCCUGUCAGAUUCUGGUGAAUCUGCAAUUCCUGCUGUAUAUCUC [A20G G63A A65U U67C] showed a self-cleavage of 0.49.
For UAACAGGGGGCCACAGCAGGAGCGUUCACGUCGCAGCCCCUGUCAGAUUCUGGUGAAUCUGCAAAUUCAGCUGUAUAUCUC [A20G G63A U69A], the self-cleavage was 0.29.
Variant UAACAGGGGGCCACAGCAGGAGCGUUCACGUCGCAGCCCCUGUCAGAUUCUGGUGAAUCUGCAAAUUCUGCCGUAUAUCUC [A20G G63A U72C] has a self-cleavage of 0.81.
Variant UAACAGGGGGCCACAGCAGGAGCGUUCACGUCGCAGCCCCUGUCAGAUUCUGGUGAAUCUGCAAAUUCUGCUGUACAUCAC [A20G G63A U76C U80A] has a self-cleavage of 0.82.
In the case of UAACAGGGGGCCACAGCAGGAGCGUUCACGUCGCAGCCCCUGUCAGAUUCUGGUGAAUCUGCUAAUUCUGCUGAAUAUCUC [A20G G63U U74A], the self-cleavage is reported as 1.16.
With UAACAGGGGGCCACAGCAGGAGCGAUCACGUCGCGCCCCCUGACAGAUUCUGGUGAAUCUGCGAAUUCUGCUGUAUAUCUC [A20G U25A A35G G36C U43A] the self-cleavage was 0.25.
UAACAGGGGGCCACAGCAGGAGCGAUCACGUCGCUGCCCCUGUCAGAUUCUGGUGAAUCUGCGAAUUCUGCUGUAUAUCUC [A20G U25A A35U] showed a self-cleavage of 0.27.
Work on UAACAGGGGGCCACAGCAGGAGCGAUCACGUCGCAGCCCCUGUCAGAUUCUGGUGUAUCUGCGAAUUCUGCUGUAUAUCUC [A20G U25A A56U] yielded a self-cleavage of 0.45.
